# Results reported in the supplement of paper PMC8728848.
# This is one part of the list.
# B1: LSECtin (Homo sapiens), Q6UXB4 (protein)
# chain: MDTTRYSKWGGSSEEVPGGPWGRWVHWSRRPLFLALAVLVTTVLWAVILSILLSKASTERAALLDGHDLLRTNASKQTAALGALKEEVGDCHSCCSGTQAQLQTTRAELGEAQAKLMEQESALRELRERVTQGLAEAGRGREDVRTELFRALEAVRLQNNSCEPCPTSWLSFEGSCYFFSVPKTTWAAAQDHCADASAHLVIVGGLDEQGFLTRNTRGRGYWLGLRAVRHLGKVQGYQWVDGVSLSFSHWNQGEPNDAWGRENCVMMLHTGLWNDAPCDSEKDGWICEKRHNC
# Key:
# Assay in all cases: glycan array binding signal (z-score within array); higher = stronger binding
# Details in all cases: glycan notation: IUPAC condensed, linker removed
# Fuc(a1-2)Gal = molecular target: Fuc(a1-2)Gal
# How it was run: (§1)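 The binding signal is a Z-score computed within each array. Data were drawn from 3228 arrays in the Consortium for Functional Glycomics database, restricted to those with a known protein sequence. Scores were averaged over arrays of the same protein sequence at different concentrations or buffers, and over linkers, and negative values can be taken as non-binding.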
# Fuc(a1-2)Gal(b1-3)GalNAc = molecular target: Fuc(a1-2)Gal(b1-3)GalNAc
# How it was run: as §1
# [1] = molecular target: Fuc(a1-2)Gal(b1-3)GalNAc(a1-3)[Fuc(a1-2)]Gal(b1-4)Glc
# How it was run: as §1
# [2] = molecular target: Fuc(a1-2)Gal(b1-3)GalNAc(a1-3)[Fuc(a1-2)]Gal(b1-4)GlcNAc
# How it was run: as §1
# [3] = molecular target: Fuc(a1-2)Gal(b1-3)GalNAc(b1-3)Gal
# How it was run: as §1
# [4] = molecular target: Fuc(a1-2)Gal(b1-3)GalNAc(b1-3)Gal(a1-4)Gal(b1-4)Glc
# How it was run: as §1
# [5] = molecular target: Fuc(a1-2)Gal(b1-3)GalNAc(b1-4)[Neu5Ac(a2-3)]Gal(b1-4)Glc
# How it was run: as §1
# Fuc(a1-2)Gal(b1-3)GlcNAc = molecular target: Fuc(a1-2)Gal(b1-3)GlcNAc
# How it was run: as §1
# [6] = molecular target: Fuc(a1-2)Gal(b1-3)GlcNAc(b1-2)Man(a1-3)[Fuc(a1-2)Gal(b1-3)GlcNAc(b1-2)Man(a1-6)]Man(b1-4)GlcNAc(b1-4)GlcNAc
# How it was run: as §1
# [7] = molecular target: Fuc(a1-2)Gal(b1-3)GlcNAc(b1-2)Man(a1-3)[Fuc(a1-2)Gal(b1-3)GlcNAc(b1-2)Man(a1-6)]Man(b1-4)GlcNAc(b1-4)[Fuc(a1-6)]GlcNAc
# How it was run: as §1
# [8] = molecular target: Fuc(a1-2)Gal(b1-3)GlcNAc(b1-3)Gal(b1-4)Glc
# How it was run: as §1
# [9] = molecular target: Fuc(a1-2)Gal(b1-3)GlcNAc(b1-3)GalNAc
# How it was run: as §1
# [10] = molecular target: Fuc(a1-2)Gal(b1-3)GlcNAc(b1-3)[Fuc(a1-2)Gal(b1-3)GlcNAc(b1-6)]GalNAc
# How it was run: as §1
# [11] = molecular target: Fuc(a1-2)Gal(b1-3)GlcNAc(b1-3)[Gal(b1-4)GlcNAc(b1-6)]Gal(b1-4)Glc
# How it was run: as §1
# [12] = molecular target: Fuc(a1-2)Gal(b1-3)GlcNAc(b1-3)[Gal(b1-4)[Fuc(a1-3)]GlcNAc(b1-6)]Gal(b1-4)Glc
# How it was run: as §1
# [13] = molecular target: Fuc(a1-2)Gal(b1-3)GlcNAc(b1-3)[Neu5Ac(a2-6)Gal(b1-4)GlcNAc(b1-6)]Gal(b1-4)Glc
# How it was run: as §1
# [14] = molecular target: Fuc(a1-2)Gal(b1-3)GlcNAc6S
# How it was run: as §1
# [15] = molecular target: Fuc(a1-2)Gal(b1-3)[Fuc(a1-4)]GlcNAc
# How it was run: as §1
# [16] = molecular target: Fuc(a1-2)Gal(b1-3)[Fuc(a1-4)]GlcNAc(b1-2)Man(a1-3)[Fuc(a1-2)Gal(b1-3)[Fuc(a1-4)]GlcNAc(b1-2)Man(a1-3)]Man(b1-4)GlcNAc(b1-4)GlcNAc
# How it was run: as §1
# [17] = molecular target: Fuc(a1-2)Gal(b1-3)[Fuc(a1-4)]GlcNAc(b1-2)Man(a1-3)[Fuc(a1-2)Gal(b1-3)[Fuc(a1-4)]GlcNAc(b1-2)Man(a1-6)]Man(b1-4)GlcNAc(b1-4)GlcNAc
# How it was run: as §1
# [18] = molecular target: Fuc(a1-2)Gal(b1-3)[Fuc(a1-4)]GlcNAc(b1-2)Man(a1-3)[Fuc(a1-2)Gal(b1-3)[Fuc(a1-4)]GlcNAc(b1-2)Man(a1-6)]Man(b1-4)GlcNAc(b1-4)[Fuc(a1-6)]GlcNAc(b1-4)[Fuc(a1-6)]GlcNAc
# How it was run: as §1
# [19] = molecular target: Fuc(a1-2)Gal(b1-3)[Fuc(a1-4)]GlcNAc(b1-3)[Fuc(a1-3)[Gal(b1-4)]GlcNAc(b1-6)]Gal(b1-4)Glc
# How it was run: as §1
# [20] = molecular target: Fuc(a1-2)Gal(b1-3)[Fuc(a1-4)]GlcNAc(b1-3)[Gal(b1-4)GlcNAc(b1-6)]Gal(b1-4)Glc
# How it was run: as §1
# [21] = molecular target: Fuc(a1-2)Gal(b1-4)Fuc(a1-3)]GlcNAc(b1-2)Man(a1-3)[Fuc(a1-2)Gal(b1-4)[Fuc(a1-3)]GlcNAc(b1-2)Man(a1-6)]Man(b1-4)GlcNAc(b1-4)GlcNAc
# How it was run: as §1
# Fuc(a1-2)Gal(b1-4)Glc = molecular target: Fuc(a1-2)Gal(b1-4)Glc
# How it was run: as §1
# Fuc(a1-2)Gal(b1-4)Glc6S = molecular target: Fuc(a1-2)Gal(b1-4)Glc6S
# How it was run: as §1
# Fuc(a1-2)Gal(b1-4)GlcNAc = molecular target: Fuc(a1-2)Gal(b1-4)GlcNAc
# How it was run: as §1
# [22] = molecular target: Fuc(a1-2)Gal(b1-4)GlcNAc(b1-2)Man
# How it was run: as §1
# [23] = molecular target: Fuc(a1-2)Gal(b1-4)GlcNAc(b1-2)Man(a1-3)[Fuc(a1-2)Gal(b1-4)GlcNAc(b1-2)Man(a1-6)]Man(b1-4)GlcNAc(b1-4)GlcNAc
# How it was run: as §1
# [24] = molecular target: Fuc(a1-2)Gal(b1-4)GlcNAc(b1-2)Man(a1-3)[Fuc(a1-2)Gal(b1-4)GlcNAc(b1-2)Man(a1-6)]Man(b1-4)GlcNAc(b1-4)[Fuc(a1-6)]GlcNAc
# How it was run: as §1
binder,measurement,setting,value
B1,glycan array binding signal (z-score),Fuc(a1-2)Gal,-0.224
same,glycan array binding signal (z-score),Fuc(a1-2)Gal(b1-3)GalNAc,-0.159
same,glycan array binding signal (z-score),[1],-0.135
same,glycan array binding signal (z-score),[2],-0.136
same,glycan array binding signal (z-score),[3],0.07
same,glycan array binding signal (z-score),[4],-0.184
same,glycan array binding signal (z-score),[5],0.083
same,glycan array binding signal (z-score),Fuc(a1-2)Gal(b1-3)GlcNAc,-0.21
same,glycan array binding signal (z-score),[6],0.42
same,glycan array binding signal (z-score),[7],-0.124
same,glycan array binding signal (z-score),[8],-0.196
same,glycan array binding signal (z-score),[9],-0.139
same,glycan array binding signal (z-score),[10],-0.131
same,glycan array binding signal (z-score),[11],-0.14
same,glycan array binding signal (z-score),[12],-0.276
same,glycan array binding signal (z-score),[13],-0.13
same,glycan array binding signal (z-score),[14],-0.125
same,glycan array binding signal (z-score),[15],-0.192
same,glycan array binding signal (z-score),[16],-0.107
same,glycan array binding signal (z-score),[17],2.05
same,glycan array binding signal (z-score),[18],-0.127
same,glycan array binding signal (z-score),[19],-0.119
same,glycan array binding signal (z-score),[20],-0.131
same,glycan array binding signal (z-score),[21],-0.123
same,glycan array binding signal (z-score),Fuc(a1-2)Gal(b1-4)Glc,-0.195
same,glycan array binding signal (z-score),Fuc(a1-2)Gal(b1-4)Glc6S,0.134
same,glycan array binding signal (z-score),Fuc(a1-2)Gal(b1-4)GlcNAc,-0.092
same,glycan array binding signal (z-score),[22],-0.135
same,glycan array binding signal (z-score),[23],-0.098
same,glycan array binding signal (z-score),[24],-0.139
